# A collection of fitness landscapes (doi:10.1126/science.1257360)
# The other results are listed elsewhere or left out.
# B1: PhoQ; a variant is named by its letters at X, in order, P23837 (parent)
# chain: MKKLLRLFFPLSLRVRFLLATAAVVLVLSLAYGMVALIGYSVSFDKTTFRLLRGESNLFYTLAKWENNKLHVELPENIDKQSPTMTLIYDENGQLLWAQRDVPWLMKMIQPDWLKSNGFHEIEADVNDTSLLLSGDHSIQQQLQEVREDDDDAEMTHSVAVNVYPATSRMPKLTIVVVDTIPVELKSSYMVWSWFIYVLSANLLLVIPLLWVAAWWSLRPIEALAKEVRELEEHNRELLNPATTRELTSLVRNLNRLLKSERERYDKYRTTLTDLTHSLKTPLXXLQXXLRSLRSEKMSVSDAEPVMLEQISRISQQIGYYLHRASMRGGTLLSRELHPVAPLLDNLTSALNKVYQRKGVNISLDISPEISFVGEQNDFVEVMGNVLDNACKYCLEFVEISARQTDEHLYIVVEDDGPGIPLSKREVIFDRGQRVDTLRPGQGVGLAVAREITEQYEGKIVAGESMLGGARMEVIFGRQHSAPKDE
# Variants of: B1
# Test: enrichment ratio after two sorts for PhoP signalling (ratio (wild type AVST 3.29)); higher = more functional
# Conditions: with PhoP (E. coli)
row,Variant,enrichment ratio
1,IIYC,≤ 0.25
2,FGMS,0.618
3,TITF,≤ 0.25
4,LTRR,≤ 0.25
5,QPPP,≤ 0.25
6,YLNI,≤ 0.25
7,FNTM,≤ 0.25
8,TTQF,22.7
9,GDIL,8.6
10,LKAR,≤ 0.25
11,DELD,2.25
12,ECDR,≤ 0.25
13,EFVR,≤ 0.25
14,QVCR,≤ 0.25
15,GSAC,≤ 0.25
16,VMDH,≤ 0.25
17,GYST,≤ 0.25
18,FGRG,≤ 0.25
19,QYSW,≤ 0.25
20,RGTF,≤ 0.25
21,ITQR,≤ 0.25
22,ETGD,≤ 0.25
23,FECM,5
24,GINI,≤ 0.25

row,Variant,enrichment ratio
1,WDAL,≤ 0.25
2,KMMN,≤ 0.25
3,NSGT,≤ 0.25
4,FSVK,≤ 0.25
5,VPQE,≤ 0.25
6,NHHW,≤ 0.25
7,DNPP,≤ 0.25
8,VNPN,≤ 0.25
9,PIFE,≤ 0.25
10,GKFL,≤ 0.25
11,KQCN,≤ 0.25
12,KNLH,≤ 0.25
13,YEGE,≤ 0.25
14,RGRN,≤ 0.25
15,IFDG,≤ 0.25
16,RNFM,≤ 0.25
17,VCTH,≤ 0.25
18,SAHM,≤ 0.25
19,RDQM,≤ 0.25
20,EETS,≤ 0.25
21,GAHK,≤ 0.25
22,NFAM,≤ 0.25
23,NKNN,≤ 0.25
24,PQSN,≤ 0.25

row,Variant,enrichment ratio
1,PGLD,≤ 0.25
2,VEEC,≤ 0.25
3,GWRC,≤ 0.25
4,YCVG,≤ 0.25
5,HSHP,≤ 0.25
6,EPSM,≤ 0.25
7,WPYR,≤ 0.25
8,TPRS,≤ 0.25
9,HPLS,≤ 0.25
10,PFYI,≤ 0.25
11,ICWA,≤ 0.25
12,PNFV,≤ 0.25
13,AHDH,≤ 0.25
14,WVAF,≤ 0.25
15,TMMT,22.9
16,FDSY,≤ 0.25
17,SLLA,8.07
18,VTGG,≤ 0.25
19,PDYK,≤ 0.25
20,AFRM,≤ 0.25
21,RRHG,≤ 0.25
22,HPCN,≤ 0.25
23,EMFT,≤ 0.25
24,YHYD,≤ 0.25

row,Variant,enrichment ratio
1,KWLD,≤ 0.25
2,KPCE,≤ 0.25
3,LYRI,≤ 0.25
4,PCGH,≤ 0.25
5,LSLN,≤ 0.25
6,YPQQ,≤ 0.25
7,HNHK,≤ 0.25
8,FHRS,≤ 0.25
9,TEET,≤ 0.25
10,TVPW,≤ 0.25
11,AEWP,≤ 0.25
12,AYVY,≤ 0.25
13,VQIH,≤ 0.25
14,IGKN,≤ 0.25
15,PGAK,≤ 0.25
16,GGTW,≤ 0.25
17,DGYD,≤ 0.25
18,VECM,0.698
19,ISAY,≤ 0.25
20,KYRT,≤ 0.25
21,HDFD,≤ 0.25
22,IEAD,≤ 0.25
23,LKWS,≤ 0.25
24,PITC,≤ 0.25

row,Variant,enrichment ratio
1,ASKK,≤ 0.25
2,WQGN,≤ 0.25
3,NIQL,≤ 0.25
4,PRMA,≤ 0.25
5,HWGK,≤ 0.25
6,YSGK,≤ 0.25
7,FTGE,≤ 0.25
8,HTCQ,≤ 0.25
9,GMFV,≤ 0.25
10,WQGA,≤ 0.25
11,GHMK,≤ 0.25
12,IVVV,≤ 0.25
13,AIAS,9.4
14,FGNS,≤ 0.25
15,LVAI,≤ 0.25
16,NEFC,≤ 0.25
17,HYYH,≤ 0.25
18,FKKC,≤ 0.25
19,TAVM,2.01
20,WVWK,≤ 0.25
21,LPPG,≤ 0.25
22,TAVD,≤ 0.25
23,VWVT,≤ 0.25
24,AWWA,≤ 0.25

row,Variant,enrichment ratio
1,YQSF,≤ 0.25
2,SHIY,0.542
3,LIAP,≤ 0.25
4,RSIN,≤ 0.25
5,VVII,≤ 0.25
6,EFEC,≤ 0.25
7,GVLH,10.3
8,VNFK,≤ 0.25
9,PRAW,≤ 0.25
10,GVSY,≤ 0.25
11,AHIY,≤ 0.25
12,MKHM,≤ 0.25
13,EDSW,≤ 0.25
14,GQTN,≤ 0.25
15,EKFW,≤ 0.25
16,FGRY,≤ 0.25
17,RPMD,≤ 0.25
18,NTGH,≤ 0.25
19,PVIV,≤ 0.25
20,SVWL,≤ 0.25
21,DCYD,≤ 0.25
22,MFAK,≤ 0.25
23,HRGK,≤ 0.25
24,KLIQ,≤ 0.25

row,Variant,enrichment ratio
1,VGGG,≤ 0.25
2,IGNT,≤ 0.25
3,MESS,5.15
4,NLYG,≤ 0.25
5,THVI,2.32
6,WKQM,≤ 0.25
7,RQRA,≤ 0.25
8,WPFS,≤ 0.25
9,EADQ,≤ 0.25
10,NIIF,≤ 0.25
11,MDAI,3.77
12,LYHP,≤ 0.25
13,SKGV,0.285
14,SPFE,≤ 0.25
15,PQIY,≤ 0.25
16,HMLA,≤ 0.25
17,TNWN,≤ 0.25
18,PISC,≤ 0.25
19,WMAP,≤ 0.25
20,TFKK,≤ 0.25
21,YPNG,≤ 0.25
22,TLEM,≤ 0.25
23,HLHG,≤ 0.25
24,YTAP,≤ 0.25

row,Variant,enrichment ratio
1,PFHM,≤ 0.25
2,TRNM,≤ 0.25
3,VCSA,≤ 0.25
4,ALSF,12.1
5,TKYS,≤ 0.25
6,NGEG,≤ 0.25
7,IHYY,≤ 0.25
8,MPRY,≤ 0.25
9,PKIK,≤ 0.25
10,SMYV,≤ 0.25
11,RGDI,≤ 0.25
12,DMTH,≤ 0.25
13,VRLF,≤ 0.25
14,WFER,≤ 0.25
15,REQR,≤ 0.25
16,YECM,0.314
17,GFQN,≤ 0.25
18,TYKD,≤ 0.25
19,YWDL,≤ 0.25
20,WGPK,≤ 0.25
21,KEPP,≤ 0.25
22,KANV,≤ 0.25
23,YGQS,≤ 0.25
24,IGRF,≤ 0.25

row,Variant,enrichment ratio
1,LSMI,6.47
2,KFSK,≤ 0.25
3,DRLH,≤ 0.25
4,HMHP,≤ 0.25
5,GADY,≤ 0.25
6,SKVC,9.89
7,HMDW,≤ 0.25
8,GCKL,≤ 0.25
9,QIAW,≤ 0.25
10,DNYE,≤ 0.25
11,FHDW,≤ 0.25
12,WLRM,≤ 0.25
13,DFGE,≤ 0.25
14,DDCS,≤ 0.25
15,YSCF,0.842
16,WQMF,≤ 0.25
17,LNNY,1.79
18,KHDK,≤ 0.25
19,CIFN,≤ 0.25
20,ASGR,≤ 0.25
21,ALCR,6.94
22,QAGP,≤ 0.25
23,EPRI,≤ 0.25
24,MMRV,≤ 0.25

row,Variant,enrichment ratio
1,LQRH,≤ 0.25
2,KAII,≤ 0.25
3,KLKY,≤ 0.25
4,LQVR,≤ 0.25
5,VERG,≤ 0.25
6,GYDS,≤ 0.25
7,DIIY,≤ 0.25
8,ASCW,1.22
9,IMKR,≤ 0.25
10,YRLT,≤ 0.25
11,QVNP,≤ 0.25
12,TPAI,≤ 0.25
13,SYHS,≤ 0.25
14,TRHQ,≤ 0.25
15,TFKR,≤ 0.25
16,SAFP,≤ 0.25
17,VNIQ,≤ 0.25
18,NKGH,≤ 0.25
19,VFWI,≤ 0.25
20,TNLT,2.17
21,MDLQ,≤ 0.25
22,YRWF,≤ 0.25
23,NDFD,≤ 0.25
24,VCKH,≤ 0.25

row,Variant,enrichment ratio
1,PFHP,≤ 0.25
2,LANG,≤ 0.25
3,MHKT,≤ 0.25
4,QFFS,≤ 0.25
5,ERCP,≤ 0.25
6,ILMA,≤ 0.25
7,DMMM,≤ 0.25
8,WGMA,≤ 0.25
9,TERA,≤ 0.25
10,NNAE,≤ 0.25
11,HEHC,≤ 0.25
12,EGQH,≤ 0.25
13,NRDS,≤ 0.25
14,AAVT,2.41
15,ERMY,≤ 0.25
16,MQGI,≤ 0.25
17,QCTH,≤ 0.25
18,DYTE,≤ 0.25
19,FIFE,≤ 0.25
20,IIKA,≤ 0.25
21,MCLH,≤ 0.25
22,IIAA,≤ 0.25
23,VVYN,≤ 0.25
24,IAFS,≤ 0.25

row,Variant,enrichment ratio
1,RHST,≤ 0.25
2,ADVN,≤ 0.25
3,ICDE,≤ 0.25
4,GDFT,≤ 0.25
5,QYGT,≤ 0.25
6,PIAR,≤ 0.25
7,PIFH,≤ 0.25
8,PNSA,≤ 0.25
9,ACVE,≤ 0.25
10,GDYC,≤ 0.25
11,LWPE,≤ 0.25
12,KLTS,≤ 0.25
13,WIIW,≤ 0.25
14,MGDR,≤ 0.25
15,KIVD,≤ 0.25
16,EVFQ,≤ 0.25
17,YQGC,≤ 0.25
18,MDMT,≤ 0.25
19,EKNS,≤ 0.25
20,PMEL,≤ 0.25
21,CRLY,≤ 0.25
22,SAQV,0.569
23,WECG,3.2
24,FKTN,≤ 0.25

row,Variant,enrichment ratio
1,PPGN,≤ 0.25
2,WDNP,≤ 0.25
3,LTHM,3.95
4,NWDV,≤ 0.25
5,WGVD,≤ 0.25
6,RGNM,≤ 0.25
7,NNCE,≤ 0.25
8,EKII,≤ 0.25
9,VMFE,≤ 0.25
10,KALF,≤ 0.25
11,DRNR,≤ 0.25
12,YCDI,≤ 0.25
13,GPEN,≤ 0.25
14,ESEH,≤ 0.25
15,QDEL,≤ 0.25
16,YIFV,≤ 0.25
17,RFSW,≤ 0.25
18,SEWI,3.57
